In the supplement of paper PMC3334620:
The full ranking holds about 33,000 sequences; the median of “E-score (-0.5 to 0.5)” is about -0.035, and the highest 2% start at about 0.34. This is one part of the list.

What follows are sequences tested against T1, Mot3 (UniProt P54785) (assay: PBM E-score (8-mer binding enrichment) (E-score (-0.5 to 0.5)); higher = stronger / more preferred TF binding; most listed sequences are background and not binding sites). Details: protein concentration: 200 nM; construct: GST-full length.
T1 sequence: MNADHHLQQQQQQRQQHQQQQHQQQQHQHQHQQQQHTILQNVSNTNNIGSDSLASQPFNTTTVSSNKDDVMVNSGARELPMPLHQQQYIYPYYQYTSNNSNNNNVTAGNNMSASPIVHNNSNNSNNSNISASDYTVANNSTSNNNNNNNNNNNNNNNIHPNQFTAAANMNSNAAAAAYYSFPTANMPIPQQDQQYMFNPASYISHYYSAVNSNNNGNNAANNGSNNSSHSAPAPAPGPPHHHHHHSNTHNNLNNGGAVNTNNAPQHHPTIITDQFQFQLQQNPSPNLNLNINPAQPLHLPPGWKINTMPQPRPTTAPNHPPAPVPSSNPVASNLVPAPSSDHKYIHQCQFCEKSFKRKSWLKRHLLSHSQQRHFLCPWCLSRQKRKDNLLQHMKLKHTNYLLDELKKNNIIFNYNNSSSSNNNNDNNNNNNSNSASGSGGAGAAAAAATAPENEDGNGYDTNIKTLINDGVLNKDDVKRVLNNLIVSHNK
Procedure, shortened: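 For each ungapped eight-base word taken together with its reverse complement, the Universal PBM Analysis Suite assigned an E-score. Binding data came from GST-tagged yeast transcription factors, applied at about 100-200 nM, on universal all-10-mer Agilent arrays made double-stranded by primer extension. Fluorescent anti-GST marked bound protein, and scans were normalised with masliner.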

Row | Sequence | PBM E-score
1 | GGTTAGTA | 0.0741
2 | ATATACAG | 0.1
3 | ACTAGTTC | 0.0677
4 | ACCCCTTG | -0.111
5 | ATGTTACA | 0.336
6 | CCAGATTA | 0.0153
7 | ATCCGTCA | -0.123
8 | AAGTTTCT | -0.0129
9 | ATTTCCTA | 0.371
10 | TCAGCAAA | 0.0966
11 | ACGGGCGG | -0.212
12 | CGCGACCG | 0.0478
13 | GAGAGCGC | -0.317
14 | AAGCTTTC | 0.0664
15 | CAAGCCGG | -0.0974
16 | TCGACTCA | 0.112
17 | ACGCCTAT | 0.0777
18 | GATTTGAA | 0.14
19 | CCGTCAAA | -0.0163
20 | CGGATAGC | -0.167
21 | TCGCCCGA | -0.0433
22 | GAGCCAGA | -0.045

Row | Sequence | PBM E-score
23 | ACAGTCTG | -0.263
24 | GAGAGCCC | -0.378
25 | CTCAGTCA | -0.0001
26 | AGCTGGTA | -0.0734
27 | GGAAATTA | 0.196
28 | GACACGCC | 0.0713
29 | GTGGAGGA | -0.166
30 | CTGACTGC | -0.0379
31 | ACTAAGGA | 0.033
32 | TACTCAGA | -0.0365
33 | ATTAGAGC | 0.0474
34 | ACATCGAT | 0.099
35 | CTCGCGAA | -0.0724
36 | GCCTGATA | 0.184
37 | AAAGGAAG | 0.059
38 | CTAGGCAC | 0.485
39 | GTACCTCA | 0.113
40 | GACCACTC | -0.237
41 | AGCTCGCA | -0.214
42 | AACTCGCT | -0.0209
43 | TACGATAA | -0.032
44 | CAAATTTC | 0.0703

Row | Sequence | PBM E-score
45 | AGCATCAT | -0.137
46 | ACATACCG | 0.215
47 | ACATCATA | 0.119
48 | CCATCCCC | -0.185
49 | CACATGCG | 0.108
50 | AGCGTGGG | -0.307
51 | AATTAGCC | -0.134
52 | AGATTATG | 0.0857
53 | ATTACGAG | 0.275
54 | CCGGTCCC | -0.277
55 | CTCTTAGA | 0.0357
56 | TCGTCACA | -0.036
57 | AGAAAAAC | 0.061
58 | ATAAGTAA | 0.151
59 | CCTCTTCA | -0.171
60 | GTGAGCCA | -0.12
61 | ATAAATAA | 0.12
62 | CAATGGAA | 0.0358
63 | ACGGTTTG | -0.0879
64 | AACTTGCA | -0.105
65 | GCCCCTGA | -0.189
66 | CCGTGAAA | 0.0176

Row | Sequence | PBM E-score
67 | CTTTACTA | 0.235
68 | CGGGATCC | -0.271
69 | CCACTTTC | -0.131
70 | ACAGGCCC | 0.0653
71 | AACTAAAT | -0.0125
72 | AATCACCA | -0.0388
73 | AGATACGA | -0.0356
74 | ATGGGCTG | -0.181
75 | CACTAGCA | -0.0744
76 | GTAACGAC | -0.0159
77 | CATTCTTC | -0.0746
78 | TACCAAAA | 0.144
79 | AGTGGCGG | -0.195
80 | CGAACCGA | -0.023
81 | TAGCTCCA | -0.00582
82 | TCGTGCCA | -0.155
83 | CAGCCCAA | -0.0603
84 | CCCACTGC | -0.32
85 | GGCCACGA | -0.096
86 | TCGGCCAA | -0.137
